Measurements: patent US12472180B2, “Combinations for treatment of NAFLD/NASH and related diseases” (Pfizer Inc., priority 2020, dated 2025)

Assays:
Type in all cases: in vivo, human
[1] = system: adults with non-alcoholic fatty liver disease (NAFLD); experiment: Phase 2A study: platelets; conditions: Day 42, Cmpd A 15 mg, Cmpd D 300 mg Q12H
Description: Table 17 provides a statistical analysis of percent change from baseline in platelets on Day 42—FAS.

[2] = system: adults with non-alcoholic fatty liver disease (NAFLD); experiment: Phase 2A study: other fasting serum lipids and apolipoproteins; conditions: Day 42; Cmpd A 15 mg, Cmpd D 300 mg Q12H
Description: A summary of the statistical analysis of percent change from baseline in other fasting serum lipid parameters on day 42—FAS is provided in Table 13.
The LS Mean (and 90% CIs) percent change from placebo on Day 42 are given.

[3] = system: adults with non-alcoholic fatty liver disease (NAFLD); experiment: Phase 2A study: treatment emergent adverse events, safety and tolerability; conditions: all causalities, safety analysis set
[4] = system: adults with non-alcoholic fatty liver disease (NAFLD); experiment: Phase 2A study: liver function tests; conditions: 6 weeks; Cmpd A 15 mg, Cmpd D 300 mg Q12H
Description: The LS Mean (and 90% CIs) percent change from placebo on Day 42 are given. Table 15 provides a statistical analysis of percent change from baseline in liver function tests on Day 42—FAS. […] FIG. 27a provides the plot for alanine aminotransferase (ALT); FIG. 27b provides the plot for aspartate aminotransferase (AST); FIG. 27c provides the plot for alkaline phosphotate; and FIG. 27d provides the plot for gamma glutamyl transferase (GGT).

Structure (SMILES)	Platelets % Change from Placebo, LS Mean ([1]; listed as Cmpd A)	LDL-Cholesterol % Change from Placebo, LS Mean [2]	Subjects discontinued from study due to adverse events, n (%) [3]	Subjects discontinued study drug due to AE and continue Study, n (%) [3]	Subjects with adverse events, n (%) [3]	Subjects with dose reduced or temporary discontinuation due to adverse events, n (%) [3]	Subjects with serious adverse events, n (%) [3]	Subjects with severe adverse events, n (%) [3]	Subjects discontinued from study due to adverse events, n (%) ([3]; listed as Cmpd A)	GGT change from baseline over the study (in words) [4]	alkaline phosphatase course over the study (in words) [4]	Platelets % Change from Placebo, LS Mean ([1]; listed as Cmpd D)	Subjects discontinued study drug due to AE and continue Study, n (%) ([3]; listed as Cmpd D)
COc1cc(C(=O)N2CCC3(CC2)CC(=O)c2c(cnn2C(C)C)C3)cc(-c2ccc(C(=O)O)cc2)n1 [Compound A, 4-(4-(1-isopropyl-7-oxo-1,4,6,7-tetrahydrospiro[indazole-5,4′-piperidine]-1′-carbonyl)-6-methoxypyridin-2-yl)benzoic acid]	−7.12 (−14.51, 0.91) %	statistically significantly decreased	discontinued due to severe AE of TG elevation	0	10 (34.5)	1 (3.4)	0	1 (3.4)	1 (3.4)	an increase observed	clear and statistically significant elevation	–	–
CCOc1cccnc1Oc1cncc(-c2ncc(C(=O)N[C@H]3CCOC3)cn2)c1 [Compound D, (S)-2-(5-((3-ethoxypyridin-2-yl)oxy)pyridin-3-yl)-N-(tetrahydrofuran-3-yl)pyrimidine-5-carboxamide]	–	numerical lowering trends	1 (3.6)	discontinued from study drug due to mild AE of creatine kinase and AST elevations	10 (35.7)	0	0	0	–	no significant change from baseline	clear and statistically significant decrease	7.50 (−0.99, 16.71) %	1 (3.6)
